Test results published in PMC7819943, “Rice protein-binding microarrays: a tool to detect cis-acting elements near promoter regions in rice”.
The other results are listed elsewhere or left out.

biological target: T1, OsWOX13 (Oryza sativa, UniProt Q5QMM3 1-267); assay: protein-binding microarray (RPBM); PBS, 2% BSA, 51.3 ng/ul salmon testes DNA, 50 uM zinc acetate, 200 nM TF, 25 C, 1 h; high values mean tight binding; settings: protein: recombinant; tags: N-terminal polyhistidine and DsRed monomer fusion (pET32a); label: CyDye5-dUTP incorporated in the synthesized complementary strand; 3' TTTTT single-stranded linker to array surface; dsDNA, one strand shown
T1 sequence: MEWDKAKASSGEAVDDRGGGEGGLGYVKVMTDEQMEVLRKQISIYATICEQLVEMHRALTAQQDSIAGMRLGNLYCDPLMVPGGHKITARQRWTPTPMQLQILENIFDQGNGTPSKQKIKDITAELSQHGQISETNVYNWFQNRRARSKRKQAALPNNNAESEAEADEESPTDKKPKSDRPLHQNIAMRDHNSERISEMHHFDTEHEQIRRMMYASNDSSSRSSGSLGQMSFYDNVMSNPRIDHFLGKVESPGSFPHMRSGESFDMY
How it was run: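 Transcription factors, each fused N-terminally to a polyhistidine tag and DsRed, were expressed in E. coli BL21-CodonPlus and purified on Ni–NTA. A custom Agilent array was made double-stranded by primer extension with Cy5-dUTP and blocked with 2% BSA. It was incubated with 200 nM protein in PBS, 2% BSA, salmon testes DNA and 50 µM zinc acetate at 25 °C for 1 h, then washed. The binding signal is per-feature fluorescence intensity (arbitrary units) read on an Axon 4000B scanner.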

Sequence | binding signal
ACCCAATCATCTCCTTGTAAAGTTCATTATCCATAGCAATCGGAGTCACCTAGTGCAG | 15400 fluorescence intensity (a.u.)
TATATATATATATATATATATATATTAGTGGTGCTCCCAACGGAGTCACCTAGTGCAG | 8650 fluorescence intensity (a.u.)
ATGATTGTGATTTATATTTTGAAATAAAGAGAGTAGTAATCGGAGTCACCTAGTGCAG | 50500 fluorescence intensity (a.u.)
GTTACATCACTATTAAATTAATTTATTTTAGGGACGAAAGCGGAGTCACCTAGTGCAG | 4570 fluorescence intensity (a.u.)
CATCACTTCTAATCTAATAATTAATTTGACACCTCCTGTTCGGAGTCACCTAGTGCAG | 14000 fluorescence intensity (a.u.)
TCTTTAATTTAAATTTCCCGATGTTTCGCCCAGGTTTAAACGGAGTCACCTAGTGCAG | 27600 fluorescence intensity (a.u.)
GCTTTTGATTGGCCCAGGTAAAGGTTCCAGCCACTTCGCTCGGAGTCACCTAGTGCAG | 43300 fluorescence intensity (a.u.)
TCATGACAGATCAAAACAAACTGGATTTAATCGATTCGAACGGAGTCACCTAGTGCAG | 11100 fluorescence intensity (a.u.)
AACGGGTGATTATTGTAGTTCCTCGATCGACAACTCCGACCGGAGTCACCTAGTGCAG | 7760 fluorescence intensity (a.u.)
CTGTTTGGTTCTTTGATTTATAAATCTCTGTGGTTTACAACGGAGTCACCTAGTGCAG | 9950 fluorescence intensity (a.u.)
TGTTATTGTCTTATTGACTAATGTATTGTAGGATCATTGTCGGAGTCACCTAGTGCAG | 3500 fluorescence intensity (a.u.)
GTAGTCAAGATTGAAGTGTGATCAATAGGTGCAGAGATATCGGAGTCACCTAGTGCAG | 9770 fluorescence intensity (a.u.)
CTTGATTTGGCGATCAGAAAATGCATTCTAATTTTGTTTACGGAGTCACCTAGTGCAG | 17600 fluorescence intensity (a.u.)
ATTATGTGATAGATTGATCCACAAATATTCAAGGTAAAATCGGAGTCACCTAGTGCAG | 30500 fluorescence intensity (a.u.)
TATGATTTGACAATGTGGTGTTACAGTAAATATTTACTAACGGAGTCACCTAGTGCAG | 21800 fluorescence intensity (a.u.)
CGTAAATGAACTGTCAATCGAAATTTAGCGAGATTATGGACGGAGTCACCTAGTGCAG | 36700 fluorescence intensity (a.u.)
ATGAAACACATAATTTACCTTATATTTGGAATTGAGGGAGCGGAGTCACCTAGTGCAG | 8680 fluorescence intensity (a.u.)
CTAATTGATTAGTAAACTATTTATATAGGACTGTTGTTTTCGGAGTCACCTAGTGCAG | 58300 fluorescence intensity (a.u.)
ATATAATAATAGATAGATAGATAGATAGATAGATAGATAGCGGAGTCACCTAGTGCAG | 49300 fluorescence intensity (a.u.)
GCAATTGATTGTGAAGTATTCCTTTCAGTTCGGCTTGAAGCGGAGTCACCTAGTGCAG | 45100 fluorescence intensity (a.u.)
ATGGTTTGTACTCTGATTATCTATATAATTCAGGAAATAGCGGAGTCACCTAGTGCAG | 5030 fluorescence intensity (a.u.)

Sequence | binding signal
TTTTAAACAGATGGTTTGCATATCAAAATGTTTAGAACACCGGAGTCACCTAGTGCAG | 9430 fluorescence intensity (a.u.)
TTAATTGCAGGAATTAGCTACTCGGCCGTACGTTAATCCGCGGAGTCACCTAGTGCAG | 8410 fluorescence intensity (a.u.)
ATAATTTAATTTAGCACATAATGACTACAAATAGGATTTACGGAGTCACCTAGTGCAG | 9020 fluorescence intensity (a.u.)
TTCTGATTTGGCGGCGGGAGGGCCCCACCTGTCAGTGAGACGGAGTCACCTAGTGCAG | 8160 fluorescence intensity (a.u.)
GTTATTCATGATTTATATTCCTAAGGTTTGACTTAAACATCGGAGTCACCTAGTGCAG | 7020 fluorescence intensity (a.u.)
AAGACCTAATTGCATAAGGTGCACTAGCAGCATATCTATTCGGAGTCACCTAGTGCAG | 3430 fluorescence intensity (a.u.)
GAGAGAGGTGGATTGATTTGAAGCAGAGCGCAGCAAGCATCGGAGTCACCTAGTGCAG | 10700 fluorescence intensity (a.u.)
CTAGACATATATATTTATCTAGATTCATTAACATCCATATCGGAGTCACCTAGTGCAG | 5320 fluorescence intensity (a.u.)
TGCTAATGGCGGCCATAGATTTGTACAAGTATCAGCTGAGCGGAGTCACCTAGTGCAG | 4480 fluorescence intensity (a.u.)
TATCAGTAAATTATATAAATTTTAAATGTTATGTAGCAAACGGAGTCACCTAGTGCAG | 6100 fluorescence intensity (a.u.)
CTTACATTAATGCACATAATTTTCTTGAAACTAATAATGCCGGAGTCACCTAGTGCAG | 13000 fluorescence intensity (a.u.)
GCAGATTGCCTGACAGTTCTGATGAGTTGCTACCGTCATCCGGAGTCACCTAGTGCAG | 28700 fluorescence intensity (a.u.)
GCGAACTTAATTGCTGCTAGAATGCTGCTGAAATTGGTGACGGAGTCACCTAGTGCAG | 8360 fluorescence intensity (a.u.)
ATAGTTAGACGGGCGTAATGATTGAAAAGCCTAAGCAAATCGGAGTCACCTAGTGCAG | 24700 fluorescence intensity (a.u.)
TCCTGATTCCCCGAATTATACCGTCCAGTTGCTCTCCTCCCGGAGTCACCTAGTGCAG | 3170 fluorescence intensity (a.u.)
AAAATAGATAATTGCCTTCTTTCAGTCACCCATAAAAGTACGGAGTCACCTAGTGCAG | 8890 fluorescence intensity (a.u.)
CTGATTATGAGATAGGATAAGAAGATTGTACGTTTGAGAACGGAGTCACCTAGTGCAG | 7170 fluorescence intensity (a.u.)
GGTGTAATTAACCATTAGGCAGAATTGCTTCGATATTATCCGGAGTCACCTAGTGCAG | 20300 fluorescence intensity (a.u.)
ATGTAATTGAGATACATGGGCCTCTAGTGGGCCGACTGGCCGGAGTCACCTAGTGCAG | 22100 fluorescence intensity (a.u.)
AAAGCCCCATGATTACATAAACGGGGACAGGTTTGTGATGCGGAGTCACCTAGTGCAG | 5370 fluorescence intensity (a.u.)
AGTGTATAAATTACCGCCTAATTATGAAAGATCATCCAATCGGAGTCACCTAGTGCAG | 8910 fluorescence intensity (a.u.)

Sequence | binding signal
GTTTAATTAGCGGCAGCGGAGCTCGCCTTGGTCTCGCTTTCGGAGTCACCTAGTGCAG | 10900 fluorescence intensity (a.u.)
AGGTGCAAATTGACTCCTTAAGTGGTTTTGAAAATATGTACGGAGTCACCTAGTGCAG | 11100 fluorescence intensity (a.u.)
CCAAACAGCTGTTAACATTCCATGTTTTCTTAGAGCTCTCCGGAGTCACCTAGTGCAG | 4020 fluorescence intensity (a.u.)
ATTAATAAATTCAGCCAATTAGTTGGAGTACGACTTTGAGCGGAGTCACCTAGTGCAG | 12500 fluorescence intensity (a.u.)
ATCAATACAGATCAAATTAATGTATCCCACTCAGGGCAATCGGAGTCACCTAGTGCAG | 4590 fluorescence intensity (a.u.)
AAAGGTTGTGGTTAATTAGTTAACGACCAATCGAGCCTACCGGAGTCACCTAGTGCAG | 4380 fluorescence intensity (a.u.)
GTGTGATTAGCATGCCCCAGACCGGAAGGTGAAGCTGCTACGGAGTCACCTAGTGCAG | 36200 fluorescence intensity (a.u.)
ACGACTGTAATTATTTTGGAACGGAGGTAGCAGTGATTTTCGGAGTCACCTAGTGCAG | 4120 fluorescence intensity (a.u.)
GCCATAAATTGAACACTGAAATCTAGCAGTCTAAGTGGCACGGAGTCACCTAGTGCAG | 35200 fluorescence intensity (a.u.)
TTGGATTTGGGTTAATTTGCTTGATGTATGGTGGACGGATCGGAGTCACCTAGTGCAG | 17200 fluorescence intensity (a.u.)
GAGAATTTTGTAATTTGAATTGAGTAAATTTCATCATTAGCGGAGTCACCTAGTGCAG | 15300 fluorescence intensity (a.u.)
ACCGTTGATGATACCTGATCTTGTGATGTTCTTACCTGTTCGGAGTCACCTAGTGCAG | 4430 fluorescence intensity (a.u.)
GCTAATTTGGTTTGAGATCTAAATTGACCTTACCAATATTCGGAGTCACCTAGTGCAG | 16900 fluorescence intensity (a.u.)
ATTAAATGCACTAATTTGCATTACAAAATTAATTAATACACGGAGTCACCTAGTGCAG | 26600 fluorescence intensity (a.u.)
TTTTAGTAAATTAATAAATATTTATTTTGTTATTTAATACCGGAGTCACCTAGTGCAG | 13200 fluorescence intensity (a.u.)
TTTGATGGAACATAAACCAAAATTTGAATAGAAAATTATCCGGAGTCACCTAGTGCAG | 7760 fluorescence intensity (a.u.)
CTGATTAACGTGAGAGCTTGTAGAAAGTGCCCAATTAGTACGGAGTCACCTAGTGCAG | 9890 fluorescence intensity (a.u.)
ACTTTGAAGATATTGACTGGAACAGTAACCTTGCTGCAGACGGAGTCACCTAGTGCAG | 5740 fluorescence intensity (a.u.)
TTGCTAAATTGTTGTCTTGGTTGATATTTTAGATTTCTTGCGGAGTCACCTAGTGCAG | 10000 fluorescence intensity (a.u.)
TGTTTAATTTGTTTATTTTAACTTGAAGAAGTTGAATTTTCGGAGTCACCTAGTGCAG | 12800 fluorescence intensity (a.u.)
TATTTTGACAAATTAAACTACTGCTATAGTATGGCATCAACGGAGTCACCTAGTGCAG | 5500 fluorescence intensity (a.u.)

Sequence | binding signal
GTATTTGATTTGTGTGCGATGTGAACTTGTGATGTATTTGCGGAGTCACCTAGTGCAG | 25400 fluorescence intensity (a.u.)
CCATAATTGGACTACATCTCCATTTATAACAGGGGATTCGCGGAGTCACCTAGTGCAG | 41100 fluorescence intensity (a.u.)
AATGAAATTAATTTGGTATATTAGATATTACTAGAACAAACGGAGTCACCTAGTGCAG | 8940 fluorescence intensity (a.u.)
CAGTGTTAATTGGATGTGACTTTATGCAGCTATTATGTATCGGAGTCACCTAGTGCAG | 47200 fluorescence intensity (a.u.)
ATCCATCAAATCAACCACACTAATTACTCCATCATTTAATCGGAGTCACCTAGTGCAG | 13600 fluorescence intensity (a.u.)
CGTAAATTTTCAATAAAATTTTAGTGAAATCAGGAATATGCGGAGTCACCTAGTGCAG | 17500 fluorescence intensity (a.u.)
AAGATTTGTCTCATAAATTAGTCGCAATATGTGTAATTAGCGGAGTCACCTAGTGCAG | 7560 fluorescence intensity (a.u.)
GAGATTAACTGAAAGCTGGTGGCCATCATTTGCAATGCTGCGGAGTCACCTAGTGCAG | 17800 fluorescence intensity (a.u.)
TTTTATTTTGAATTTTGATTAATGTCGTATTGGCTTCCTACGGAGTCACCTAGTGCAG | 4180 fluorescence intensity (a.u.)
GCCGACTAATTGGTGCCAGCGCCGGAACAGGCAATAATAGCGGAGTCACCTAGTGCAG | 14800 fluorescence intensity (a.u.)
TTTAATATGACATATTTAATTAGTCTTAATAAATTCGTCTCGGAGTCACCTAGTGCAG | 20700 fluorescence intensity (a.u.)
TCTTTGACAGAAGTACTTGCTCCTGTCATTTTCAGTGCTACGGAGTCACCTAGTGCAG | 8110 fluorescence intensity (a.u.)
AACAAAATAAATTATCTTTTGGATGCTGCCGCGAAATTCACGGAGTCACCTAGTGCAG | 4100 fluorescence intensity (a.u.)
AGTCAATATTGGAATATAATTTAGAAGTAACTGAAATTCGCGGAGTCACCTAGTGCAG | 6820 fluorescence intensity (a.u.)
GGGTAACAATCAACGCTCATCGCTCATCTATTTCTTTGTACGGAGTCACCTAGTGCAG | 6070 fluorescence intensity (a.u.)
GATCAAATCAATCTACAGGAAGATATCGGGTTTGTCGTTCCGGAGTCACCTAGTGCAG | 8430 fluorescence intensity (a.u.)
ACCATCTGTAATTATAAATTTATAATATGCTCATTTGACACGGAGTCACCTAGTGCAG | 29100 fluorescence intensity (a.u.)
CGTACAATATTAATTAAAGTGTTTAAGAAACAGAGACTAGCGGAGTCACCTAGTGCAG | 3740 fluorescence intensity (a.u.)
ACCAAATGACATGACTCACTTAGATCCTAATAGGACATCCCGGAGTCACCTAGTGCAG | 6450 fluorescence intensity (a.u.)
AATACAGGATTAAGAGACATAATGGAGTAAATCTTGTGCACGGAGTCACCTAGTGCAG | 3200 fluorescence intensity (a.u.)
GCTAACTTATCAGTAACACAATATATTGATAAGTTCGAGGCGGAGTCACCTAGTGCAG | 13700 fluorescence intensity (a.u.)
